PMC6451091
The other results are listed elsewhere or left out. For part of these data: At the low end of the ranking, values are background and their order means little. For part of these data: Measured with an extract: partners may take part in the binding.

biological target: PU.1 (IVT) (UniProt P17947); assay: protein-binding microarray (PBM); settings: 20 mM HEPES pH 7.9, 100 mM NaCl, 1 mM DTT, 0.2 mg/mL BSA, 0.02% Triton X-100, 2% milk, 0.4 mg/mL salmon testes DNA; 1 h; temperature not stated; high values mean tight binding; double strand, one strand shown; sequences stand for … in GCCTAGCAC…GTGCTAGGTCTTGATTCGCTTGACGCTGCTG

Row | Sequence | binding signal
1 | TAAGTGGGGAAGTGAAGACA | 3.06 z-score
2 | TAAAAGAGGAACTCACAGTG | 6 z-score
3 | TTAATGAGGAAGTGCTGTCA | 6.5 z-score
4 | TGAAAGAGGAAGTGGAGGGG | 6.94 z-score
5 | AAAAAAAGGAACTGGCAAGA | 4.43 z-score
6 | GAAAAGAGGAAGTGTAACCA | 8.52 z-score
7 | CAAAAAGGGATGTGGATGCT | 1.81 z-score
8 | GACAAGAGGAAGTCCTCTGT | 4.55 z-score
9 | AAAAAAGGGAAGTGCCATAA | 7.55 z-score
10 | CCAAACAGGAAGTGCTATTT | 5.67 z-score
11 | AAAATGAGGAACTGCTGTCT | 6.9 z-score
12 | GAAAAAAGGAAGTGTGTTGT | 6.01 z-score
13 | CAAATGGGGAAGTGATGACA | 6.84 z-score
14 | AGTGAGAGGAAGTGACTTGA | 4.54 z-score
15 | GGAAAGAGGAAGTCTGCAGA | 7.29 z-score
16 | TGAAAGAGGAAGTACAACCA | 7.66 z-score
17 | AACAACAGGAAGTGCCTTTT | 4.57 z-score
18 | CGAAAAGGGAAATACTGTGA | 2.65 z-score
19 | CTAAGGAGGAAGTAAAAGCA | 4.84 z-score
20 | GAAATGAGGAAGTGGCTGGT | 7.9 z-score

Row | Sequence | binding signal
21 | CAAAAAGGGAAGTGTATGCT | 6.78 z-score
22 | AAATAGAGGAAGTGAATTGT | 7.77 z-score
23 | GTTGTGAGGAAGTGAAGTTA | 3.85 z-score
24 | AAAATCAGGAAGTGTGAGTC | 5.55 z-score
25 | GCTAGGAGGAAGTGGCAAGA | 4.16 z-score
26 | AAAATGAGGAACTAGCGAAA | 6.87 z-score
27 | GAAAACAGTAAGTCCCATAG | 0.394 z-score
28 | GAAAAAGGGAAGTGGTTCAT | 7.6 z-score
29 | GAAATAAGGAAGTGCTCAAA | 6.62 z-score
30 | GCAAAGAGGAAGTGTCTGCT | 6.4 z-score
31 | CCTGAGAGGAAGTGATGTTC | 4.31 z-score
32 | CAAGAGAGGAAGTCTCCCTA | 3.38 z-score
33 | GCTAAGGGGAAGTGGGGCGG | 4.11 z-score
34 | AAAAAAAGGAAGTGAAATAA | 6.66 z-score
35 | TCTAAGAGGAAGTGAAAATG | 4.99 z-score
36 | TCATTAAGGAAGTGAGAGAA | 3.83 z-score
37 | TGAATGAGGAAATGGGTCGA | 3.26 z-score
38 | AGAAAAGGGAAGTGAGGGAA | 6.48 z-score
39 | TAGAAGAGGAAGTGAAGAGA | 6.29 z-score
40 | AAAAGGGGGAAGTGGCAACA | 5.93 z-score

biological target: PU.1 (endogenous, THP-1 nuclear extract) (UniProt P17947); assay: nuclear extract protein-binding microarray (nextPBM); settings: 20 mM HEPES pH 7.9, 100 mM NaCl, 1 mM DTT, 0.2 mg/mL BSA, 0.02% Triton X-100, 2% milk, 0.4 mg/mL salmon testes DNA; 1 h; temperature not stated; high values mean tight binding; double strand, one strand shown; sequences stand for … in GCCTAGCAC…GTGCTAGGTCTTGATTCGCTTGACGCTGCTG

Row | Sequence | binding signal
41 | TAAGTGGGGAAGTGAAGACA | 2.79 z-score
42 | TAAAAGAGGAACTCACAGTG | 6.33 z-score
43 | TTAATGAGGAAGTGCTGTCA | 6.9 z-score
44 | TGAAAGAGGAAGTGGAGGGG | 7.25 z-score
45 | AAAAAAAGGAACTGGCAAGA | 4.22 z-score
46 | GAAAAGAGGAAGTGTAACCA | 7.38 z-score
47 | CAAAAAGGGATGTGGATGCT | 1.4 z-score
48 | GACAAGAGGAAGTCCTCTGT | 5.02 z-score
49 | AAAAAAGGGAAGTGCCATAA | 7.07 z-score
50 | CCAAACAGGAAGTGCTATTT | 6.3 z-score
51 | AAAATGAGGAACTGCTGTCT | 6.74 z-score
52 | GAAAAAAGGAAGTGTGTTGT | 5.97 z-score
53 | CAAATGGGGAAGTGATGACA | 6.78 z-score
54 | AGTGAGAGGAAGTGACTTGA | 4.69 z-score
55 | GGAAAGAGGAAGTCTGCAGA | 6.97 z-score
56 | TGAAAGAGGAAGTACAACCA | 7.23 z-score
57 | AACAACAGGAAGTGCCTTTT | 4.91 z-score
58 | CGAAAAGGGAAATACTGTGA | 2.26 z-score
59 | CTAAGGAGGAAGTAAAAGCA | 5.38 z-score
60 | GAAATGAGGAAGTGGCTGGT | 7.19 z-score

Row | Sequence | binding signal
61 | CAAAAAGGGAAGTGTATGCT | 6.77 z-score
62 | AAATAGAGGAAGTGAATTGT | 7.18 z-score
63 | GTTGTGAGGAAGTGAAGTTA | 3.46 z-score
64 | AAAATCAGGAAGTGTGAGTC | 6.12 z-score
65 | GCTAGGAGGAAGTGGCAAGA | 4.82 z-score
66 | AAAATGAGGAACTAGCGAAA | 6.87 z-score
67 | GAAAACAGTAAGTCCCATAG | -0.145 z-score
68 | GAAAAAGGGAAGTGGTTCAT | 7.26 z-score
69 | GAAATAAGGAAGTGCTCAAA | 6.62 z-score
70 | GCAAAGAGGAAGTGTCTGCT | 6.72 z-score
71 | CCTGAGAGGAAGTGATGTTC | 4.13 z-score
72 | CAAGAGAGGAAGTCTCCCTA | 3.82 z-score
73 | GCTAAGGGGAAGTGGGGCGG | 4.72 z-score
74 | AAAAAAAGGAAGTGAAATAA | 6.43 z-score
75 | TCTAAGAGGAAGTGAAAATG | 6.16 z-score
76 | TCATTAAGGAAGTGAGAGAA | 3.73 z-score
77 | TGAATGAGGAAATGGGTCGA | 3.61 z-score
78 | AGAAAAGGGAAGTGAGGGAA | 6.82 z-score
79 | TAGAAGAGGAAGTGAAGAGA | 6.54 z-score
80 | AAAAGGGGGAAGTGGCAACA | 6.07 z-score

biological target: T1, FLI1 (endogenous, THP-1 nuclear extract) (UniProt Q01543); assay: as above; settings: 20 mM HEPES pH 7.9, 100 mM NaCl, 1 mM DTT, 0.2 mg/mL BSA, 0.02% Triton X-100, 2% milk, 0.4 mg/mL salmon testes DNA; 1 h; temperature not stated; high values mean tight binding; double strand, one strand shown; sequences stand for … in GCCTAGCAC…GTGCTAGGTCTTGATTCGCTTGACGCTGCTG
T1 sequence: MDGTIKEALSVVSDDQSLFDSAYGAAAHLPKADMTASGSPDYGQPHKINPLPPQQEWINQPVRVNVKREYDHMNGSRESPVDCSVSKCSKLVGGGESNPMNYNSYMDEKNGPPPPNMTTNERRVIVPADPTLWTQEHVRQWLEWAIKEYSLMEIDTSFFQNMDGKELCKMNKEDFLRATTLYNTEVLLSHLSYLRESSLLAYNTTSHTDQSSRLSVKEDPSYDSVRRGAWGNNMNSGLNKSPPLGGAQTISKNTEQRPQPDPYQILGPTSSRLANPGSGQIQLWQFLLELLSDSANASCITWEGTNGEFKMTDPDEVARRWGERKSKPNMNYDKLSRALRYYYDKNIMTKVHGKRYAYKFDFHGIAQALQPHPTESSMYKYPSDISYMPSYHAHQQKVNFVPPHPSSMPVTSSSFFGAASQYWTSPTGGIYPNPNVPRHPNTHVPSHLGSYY

Row | Sequence | binding signal
81 | TAAGTGGGGAAGTGAAGACA | 1.29 z-score
82 | TAAAAGAGGAACTCACAGTG | 1.57 z-score
83 | TTAATGAGGAAGTGCTGTCA | 2.85 z-score
84 | TGAAAGAGGAAGTGGAGGGG | 4.06 z-score
85 | AAAAAAAGGAACTGGCAAGA | 1.71 z-score
86 | GAAAAGAGGAAGTGTAACCA | 4.1 z-score
87 | CAAAAAGGGATGTGGATGCT | 1.1 z-score
88 | GACAAGAGGAAGTCCTCTGT | 2.63 z-score
89 | AAAAAAGGGAAGTGCCATAA | 3.06 z-score
90 | CCAAACAGGAAGTGCTATTT | 5.69 z-score
91 | AAAATGAGGAACTGCTGTCT | 2.57 z-score
92 | GAAAAAAGGAAGTGTGTTGT | 2.78 z-score
93 | CAAATGGGGAAGTGATGACA | 3.09 z-score
94 | AGTGAGAGGAAGTGACTTGA | 3.12 z-score
95 | GGAAAGAGGAAGTCTGCAGA | 3.1 z-score
96 | TGAAAGAGGAAGTACAACCA | 4.37 z-score
97 | AACAACAGGAAGTGCCTTTT | 5.02 z-score
98 | CGAAAAGGGAAATACTGTGA | 1.55 z-score
99 | CTAAGGAGGAAGTAAAAGCA | 2.65 z-score
100 | GAAATGAGGAAGTGGCTGGT | 3.71 z-score

Row | Sequence | binding signal
101 | CAAAAAGGGAAGTGTATGCT | 2.71 z-score
102 | AAATAGAGGAAGTGAATTGT | 3.87 z-score
103 | GTTGTGAGGAAGTGAAGTTA | 1.97 z-score
104 | AAAATCAGGAAGTGTGAGTC | 2.86 z-score
105 | GCTAGGAGGAAGTGGCAAGA | 2.81 z-score
106 | AAAATGAGGAACTAGCGAAA | 2.22 z-score
107 | GAAAACAGTAAGTCCCATAG | -0.0836 z-score
108 | GAAAAAGGGAAGTGGTTCAT | 2.93 z-score
109 | GAAATAAGGAAGTGCTCAAA | 2.84 z-score
110 | GCAAAGAGGAAGTGTCTGCT | 3.17 z-score
111 | CCTGAGAGGAAGTGATGTTC | 3.03 z-score
112 | CAAGAGAGGAAGTCTCCCTA | 2.32 z-score
113 | GCTAAGGGGAAGTGGGGCGG | 2.21 z-score
114 | AAAAAAAGGAAGTGAAATAA | 2.98 z-score
115 | TCTAAGAGGAAGTGAAAATG | 3.1 z-score
116 | TCATTAAGGAAGTGAGAGAA | 2.39 z-score
117 | TGAATGAGGAAATGGGTCGA | 1.9 z-score
118 | AGAAAAGGGAAGTGAGGGAA | 3.24 z-score
119 | TAGAAGAGGAAGTGAAGAGA | 3.6 z-score
120 | AAAAGGGGGAAGTGGCAACA | 3.12 z-score
